# Source: the supplement of paper PMC8728848
# The list shows a part of the results.
# What was measured:
# Experiment in all cases: glycan array binding signal (z-score within array); higher = stronger binding
# Conditions in all cases: glycan notation: IUPAC condensed, linker removed; mutation: I144G
# [1] = target: Neu5Ac(a2-3)Gal(b1-4)GlcNAc(b1-3)[Neu5Ac(a2-3)Gal(b1-4)GlcNAc(b1-6)]GalNAc
# Procedure, shortened: (§1)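 The binding signal is a Z-score computed within each array. Data were drawn from 3228 arrays in the Consortium for Functional Glycomics database, restricted to those with a known protein sequence. Scores were averaged over arrays of the same protein sequence at different concentrations or buffers, and over linkers, and negative values can be taken as non-binding.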
# [2] = target: Neu5Ac(a2-3)Gal(b1-4)GlcNAc(b1-6)GalNAc
# Procedure, shortened: as §1
# [3] = target: Neu5Ac(a2-3)Gal(b1-4)GlcNAc(b1-6)[Gal(b1-3)]GalNAc
# Procedure, shortened: as §1
# [4] = target: Neu5Ac(a2-3)Gal(b1-4)GlcNAc(b1-6)[Neu5Ac(a2-3)Gal(b1-3)]GalNAc
# Procedure, shortened: as §1
# [5] = target: Neu5Ac(a2-3)Gal(b1-4)GlcNAc6S
# Procedure, shortened: as §1
# [6] = target: Neu5Ac(a2-3)Gal(b1-4)[Fuc(a1-3)]GlcNAc
# Procedure, shortened: as §1
# [7] = target: Neu5Ac(a2-3)Gal(b1-4)[Fuc(a1-3)]GlcNAc(b1-2)Man
# Procedure, shortened: as §1
# [8] = target: Neu5Ac(a2-3)Gal(b1-4)[Fuc(a1-3)]GlcNAc(b1-3)Gal
# Procedure, shortened: as §1
# [9] = target: Neu5Ac(a2-3)Gal(b1-4)[Fuc(a1-3)]GlcNAc(b1-3)Gal(b1-4)GlcNAc
# Procedure, shortened: as §1
# [10] = target: Neu5Ac(a2-3)Gal(b1-4)[Fuc(a1-3)]GlcNAc(b1-3)Gal(b1-4)[Fuc(a1-3)]GlcNAc(b1-3)Gal(b1-4)[Fuc(a1-3)]GlcNAc
# Procedure, shortened: as §1
# [11] = target: Neu5Ac(a2-3)Gal(b1-4)[Fuc(a1-3)]GlcNAc(b1-3)GalNAc
# Procedure, shortened: as §1
# [12] = target: Neu5Ac(a2-3)Gal(b1-4)[Fuc(a1-3)]GlcNAc(b1-6)[Gal(b1-3)]GalNAc
# Procedure, shortened: as §1
# [13] = target: Neu5Ac(a2-3)Gal(b1-4)[Fuc(a1-3)]GlcNAc(b1-6)[Neu5Ac(a2-3)Gal(b1-3)]GalNAc
# Procedure, shortened: as §1
# [14] = target: Neu5Ac(a2-3)Gal(b1-4)[Fuc(a1-3)]GlcNAc6S
# Procedure, shortened: as §1
# [15] = target: Neu5Ac(a2-3)Gal6S(b1-4)GlcNAc
# Procedure, shortened: as §1
# [16] = target: Neu5Ac(a2-3)Gal6S(b1-4)[Fuc(a1-3)]GlcNAc
# Procedure, shortened: as §1
# Neu5Ac(a2-3)GalNAc = target: Neu5Ac(a2-3)GalNAc
# Procedure, shortened: as §1
# [17] = target: Neu5Ac(a2-3)GalNAc(b1-4)GlcNAc
# Procedure, shortened: as §1
# [18] = target: Neu5Ac(a2-3)[GalNAc(b1-4)]Gal(b1-4)Glc
# Procedure, shortened: as §1
# [19] = target: Neu5Ac(a2-3)[GalNAc(b1-4)]Gal(b1-4)GlcNAc
# Procedure, shortened: as §1
# [20] = target: Neu5Ac(a2-3)[GalNAc(b1-4)]Gal(b1-4)GlcNAc(b1-3)GalNAc
# Procedure, shortened: as §1
# [21] = target: Neu5Ac(a2-3)[Neu5Ac(a2-6)]GalNAc
# Procedure, shortened: as §1
# Neu5Ac(a2-6)Gal = target: Neu5Ac(a2-6)Gal
# Procedure, shortened: as §1
# [22] = target: Neu5Ac(a2-6)Gal(b1-3)GlcNAc(b1-3)[Gal(b1-4)GlcNAc(b1-6)]Gal(b1-4)Glc
# Procedure, shortened: as §1
# Neu5Ac(a2-6)Gal(b1-4)Glc = target: Neu5Ac(a2-6)Gal(b1-4)Glc
# Procedure, shortened: as §1
# [23] = target: Neu5Ac(a2-6)Gal(b1-4)GlcNAc
# Procedure, shortened: as §1
# [24] = target: Neu5Ac(a2-6)Gal(b1-4)GlcNAc(b1-2)Man
# Procedure, shortened: as §1
# [25] = target: Neu5Ac(a2-6)Gal(b1-4)GlcNAc(b1-2)Man(a1-3)Man(b1-4)GlcNAc(b1-4)GlcNAc
# Procedure, shortened: as §1
# [26] = target: Neu5Ac(a2-6)Gal(b1-4)GlcNAc(b1-2)Man(a1-3)[Gal(b1-4)GlcNAc(b1-2)Man(a1-6)]Man(b1-4)GlcNAc(b1-4)GlcNAc
# Procedure, shortened: as §1
# [27] = target: Neu5Ac(a2-6)Gal(b1-4)GlcNAc(b1-2)Man(a1-3)[GlcNAc(b1-2)Man(a1-6)]Man(b1-4)GlcNAc(b1-4)GlcNAc
# Procedure, shortened: as §1
# [28] = target: Neu5Ac(a2-6)Gal(b1-4)GlcNAc(b1-2)Man(a1-3)[GlcNAc(b1-4)][Neu5Ac(a2-6)Gal(b1-4)GlcNAc(b1-2)Man(a1-6)]Man(b1-4)GlcNAc(b1-4)GlcNAc
# Procedure, shortened: as §1
# [29] = target: Neu5Ac(a2-6)Gal(b1-4)GlcNAc(b1-2)Man(a1-3)[Man(a1-6)]Man(b1-4)GlcNAc(b1-4)GlcNAc
# Procedure, shortened: as §1
# [30] = target: Neu5Ac(a2-6)Gal(b1-4)GlcNAc(b1-2)Man(a1-3)[Neu5Ac(a2-3)Gal(b1-4)GlcNAc(b1-2)Man(a1-6)]Man(b1-4)GlcNAc(b1-4)GlcNAc
# Procedure, shortened: as §1
# [31] = target: Neu5Ac(a2-6)Gal(b1-4)GlcNAc(b1-2)Man(a1-3)[Neu5Ac(a2-6)Gal(b1-4)GlcNAc(b1-2)Man(a1-6)]Man(b1-4)GlcNAc(b1-4)GlcNAc
# Procedure, shortened: as §1
# [32] = target: Neu5Ac(a2-6)Gal(b1-4)GlcNAc(b1-2)Man(a1-3)[Neu5Ac(a2-6)Gal(b1-4)GlcNAc(b1-2)Man(a1-6)]Man(b1-4)GlcNAc(b1-4)[Fuc(a1-6)]GlcNAc
# Procedure, shortened: as §1
# [33] = target: Neu5Ac(a2-6)Gal(b1-4)GlcNAc(b1-2)Man(a1-6)Man(b1-4)GlcNAc(b1-4)GlcNAc
# Procedure, shortened: as §1
# [34] = target: Neu5Ac(a2-6)Gal(b1-4)GlcNAc(b1-2)Man(a1-6)[Gal(b1-4)GlcNAc(b1-2)Man(a1-3)]Man(b1-4)GlcNAc(b1-4)GlcNAc
# Procedure, shortened: as §1
# [35] = target: Neu5Ac(a2-6)Gal(b1-4)GlcNAc(b1-2)Man(a1-6)[GlcNAc(b1-2)Man(a1-3)]Man(b1-4)GlcNAc(b1-4)GlcNAc
# Procedure, shortened: as §1
# [36] = target: Neu5Ac(a2-6)Gal(b1-4)GlcNAc(b1-2)Man(a1-6)[Man(a1-3)]Man(b1-4)GlcNAc(b1-4)GlcNAc
# Procedure, shortened: as §1
# [37] = target: Neu5Ac(a2-6)Gal(b1-4)GlcNAc(b1-2)[Neu5Ac(a2-6)Gal(b1-4)GlcNAc(b1-4)]Man(a1-3)[GlcNAc(b1-4)][Neu5Ac(a2-6)Gal(b1-4)GlcNAc(b1-2)[Neu5Ac(a2-6)Gal(b1-4)GlcNAc(b1-6)]Man(a1-6)]Man(b1-4)GlcNAc(b1-4)GlcNAc
# Procedure, shortened: as §1
# [38] = target: Neu5Ac(a2-6)Gal(b1-4)GlcNAc(b1-2)[Neu5Ac(a2-6)Gal(b1-4)GlcNAc(b1-4)]Man(a1-3)[GlcNAc(b1-4)][Neu5Ac(a2-6)Gal(b1-4)GlcNAc(b1-4)Man(a1-6)]Man(b1-4)GlcNAc(b1-4)GlcNAc
# Procedure, shortened: as §1
# [39] = target: Neu5Ac(a2-6)Gal(b1-4)GlcNAc(b1-2)[Neu5Ac(a2-6)Gal(b1-4)GlcNAc(b1-6)]Man(a1-6)[Neu5Ac(a2-6)Gal(b1-4)GlcNAc(b1-2)Man(a1-3)][GlcNAc(b1-4)]Man(b1-4)GlcNAc(b1-4)GlcNAc
# Procedure, shortened: as §1
# [40] = target: Neu5Ac(a2-6)Gal(b1-4)GlcNAc(b1-3)Gal(b1-3)GlcNAc
# Procedure, shortened: as §1
# [41] = target: Neu5Ac(a2-6)Gal(b1-4)GlcNAc(b1-3)Gal(b1-4)GlcNAc
# Procedure, shortened: as §1
# [42] = target: Neu5Ac(a2-6)Gal(b1-4)GlcNAc(b1-3)Gal(b1-4)GlcNAc(b1-2)Man(a1-3)[Neu5Ac(a2-6)Gal(b1-4)GlcNAc(b1-3)Gal(b1-4)GlcNAc(b1-2)Man(a1-6)]GalNAc
# Procedure, shortened: as §1
binder,measurement,setting,value
"rAAL-I144G (Agrocybe aegerita), Q6WY08 (protein) MQGVNIYNISAGTSVDLAAPVTTGDIVTFFSSALNLNAGAGNPNNTTLNLFAENGAYLLHIAFRLQENVIIFNSRQPDGPWLVEQRVSDVANQFAGIDGKAMVTVFDHGDKYQVVINEKTVIQYTKQISGLTLSLSYNATEETSGFSTVVEAVTYTGLALEHHHHHH",glycan array binding signal (z-score),[1],-0.083
same,glycan array binding signal (z-score),[2],-0.197
same,glycan array binding signal (z-score),[3],-0.179
same,glycan array binding signal (z-score),[4],0.584
same,glycan array binding signal (z-score),[5],-0.146
same,glycan array binding signal (z-score),[6],-0.12
same,glycan array binding signal (z-score),[7],-0.107
same,glycan array binding signal (z-score),[8],-0.169
same,glycan array binding signal (z-score),[9],-0.075
same,glycan array binding signal (z-score),[10],-0.032
same,glycan array binding signal (z-score),[11],-0.096
same,glycan array binding signal (z-score),[12],-0.045
same,glycan array binding signal (z-score),[13],-0.121
same,glycan array binding signal (z-score),[14],-0.126
same,glycan array binding signal (z-score),[15],-0.167
same,glycan array binding signal (z-score),[16],-0.227
same,glycan array binding signal (z-score),Neu5Ac(a2-3)GalNAc,-0.092
same,glycan array binding signal (z-score),[17],-0.11
same,glycan array binding signal (z-score),[18],-0.14
same,glycan array binding signal (z-score),[19],-0.057
same,glycan array binding signal (z-score),[20],-0.153
same,glycan array binding signal (z-score),[21],-0.052
same,glycan array binding signal (z-score),Neu5Ac(a2-6)Gal,-0.158
same,glycan array binding signal (z-score),[22],-0.1
same,glycan array binding signal (z-score),Neu5Ac(a2-6)Gal(b1-4)Glc,-0.149
same,glycan array binding signal (z-score),[23],-0.13
same,glycan array binding signal (z-score),[24],-0.124
same,glycan array binding signal (z-score),[25],-0.153
same,glycan array binding signal (z-score),[26],-0.17
same,glycan array binding signal (z-score),[27],-0.121
same,glycan array binding signal (z-score),[28],-0.192
same,glycan array binding signal (z-score),[29],-0.114
same,glycan array binding signal (z-score),[30],-0.108
same,glycan array binding signal (z-score),[31],-0.111
same,glycan array binding signal (z-score),[32],-0.049
same,glycan array binding signal (z-score),[33],-0.119
same,glycan array binding signal (z-score),[34],-0.147
same,glycan array binding signal (z-score),[35],-0.12
same,glycan array binding signal (z-score),[36],-0.001
same,glycan array binding signal (z-score),[37],-0.165
same,glycan array binding signal (z-score),[38],-0.144
same,glycan array binding signal (z-score),[39],-0.164
same,glycan array binding signal (z-score),[40],-0.088
same,glycan array binding signal (z-score),[41],-0.176
same,glycan array binding signal (z-score),[42],-0.13
